Reference: article PMC7092493
Results are given in words; binding and its absence hold for the method and conditions named. Binding seen in cells or lysates may run through a third protein. Some entries that bind do so weakly or less than the wild type. Sequences can lack the tags named with a protein.

Amino acid sequences for entries named in this document (tags omitted).
UniProt Q8TDX7: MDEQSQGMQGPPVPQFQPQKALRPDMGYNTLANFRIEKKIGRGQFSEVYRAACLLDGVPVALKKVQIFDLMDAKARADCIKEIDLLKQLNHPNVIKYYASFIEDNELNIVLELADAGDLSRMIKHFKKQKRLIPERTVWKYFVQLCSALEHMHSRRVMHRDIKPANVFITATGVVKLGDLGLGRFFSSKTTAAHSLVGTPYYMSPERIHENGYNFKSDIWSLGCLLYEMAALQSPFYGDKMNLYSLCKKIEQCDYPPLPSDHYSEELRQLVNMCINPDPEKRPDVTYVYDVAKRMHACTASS

T1: Flag-tagged Codanin-1 (human) (UniProt Q8IWY9)
T1 sequence: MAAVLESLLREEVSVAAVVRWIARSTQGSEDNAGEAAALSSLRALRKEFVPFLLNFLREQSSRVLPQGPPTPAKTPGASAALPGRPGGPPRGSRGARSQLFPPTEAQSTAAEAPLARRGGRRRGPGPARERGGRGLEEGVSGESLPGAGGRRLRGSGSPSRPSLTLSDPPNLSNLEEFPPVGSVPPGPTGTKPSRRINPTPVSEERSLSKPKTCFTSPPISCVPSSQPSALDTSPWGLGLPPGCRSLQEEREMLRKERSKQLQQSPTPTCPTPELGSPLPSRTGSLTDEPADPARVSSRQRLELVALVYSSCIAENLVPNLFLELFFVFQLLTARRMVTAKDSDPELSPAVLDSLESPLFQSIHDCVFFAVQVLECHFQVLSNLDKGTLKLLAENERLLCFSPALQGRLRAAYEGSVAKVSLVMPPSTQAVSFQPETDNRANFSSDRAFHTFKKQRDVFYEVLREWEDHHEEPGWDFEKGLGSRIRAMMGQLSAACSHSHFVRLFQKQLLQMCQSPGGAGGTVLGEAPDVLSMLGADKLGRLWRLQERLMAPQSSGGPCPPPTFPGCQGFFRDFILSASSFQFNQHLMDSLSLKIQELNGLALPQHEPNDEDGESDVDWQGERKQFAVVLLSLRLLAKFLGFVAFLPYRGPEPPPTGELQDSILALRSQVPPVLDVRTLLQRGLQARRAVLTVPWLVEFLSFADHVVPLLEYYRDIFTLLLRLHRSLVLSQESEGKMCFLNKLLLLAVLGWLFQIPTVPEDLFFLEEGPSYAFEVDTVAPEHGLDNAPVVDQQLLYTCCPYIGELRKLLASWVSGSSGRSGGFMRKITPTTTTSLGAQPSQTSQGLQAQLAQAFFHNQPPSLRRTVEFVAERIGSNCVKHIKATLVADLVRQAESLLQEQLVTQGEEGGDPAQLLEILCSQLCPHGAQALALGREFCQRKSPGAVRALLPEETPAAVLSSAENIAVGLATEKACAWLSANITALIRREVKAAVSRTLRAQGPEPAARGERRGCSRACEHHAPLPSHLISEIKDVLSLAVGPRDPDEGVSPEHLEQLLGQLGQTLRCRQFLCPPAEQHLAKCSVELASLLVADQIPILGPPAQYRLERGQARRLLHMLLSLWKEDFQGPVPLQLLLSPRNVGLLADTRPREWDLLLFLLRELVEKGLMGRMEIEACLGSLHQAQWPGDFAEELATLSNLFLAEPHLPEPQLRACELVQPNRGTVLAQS

T2: HA-C15Orf41 (human) (UniProt Q9Y2V0)
T2 sequence: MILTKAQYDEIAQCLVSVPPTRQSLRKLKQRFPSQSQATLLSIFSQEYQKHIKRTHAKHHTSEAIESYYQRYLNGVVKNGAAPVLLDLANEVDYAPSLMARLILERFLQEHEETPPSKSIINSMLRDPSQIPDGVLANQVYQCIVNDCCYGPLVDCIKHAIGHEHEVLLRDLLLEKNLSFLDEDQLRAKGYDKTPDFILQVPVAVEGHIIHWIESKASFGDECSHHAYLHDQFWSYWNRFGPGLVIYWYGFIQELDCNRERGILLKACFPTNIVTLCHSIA

T3: Codanin-1 protein lacking the last 224 amino acids (human) (UniProt Q8IWY9)
T3 sequence: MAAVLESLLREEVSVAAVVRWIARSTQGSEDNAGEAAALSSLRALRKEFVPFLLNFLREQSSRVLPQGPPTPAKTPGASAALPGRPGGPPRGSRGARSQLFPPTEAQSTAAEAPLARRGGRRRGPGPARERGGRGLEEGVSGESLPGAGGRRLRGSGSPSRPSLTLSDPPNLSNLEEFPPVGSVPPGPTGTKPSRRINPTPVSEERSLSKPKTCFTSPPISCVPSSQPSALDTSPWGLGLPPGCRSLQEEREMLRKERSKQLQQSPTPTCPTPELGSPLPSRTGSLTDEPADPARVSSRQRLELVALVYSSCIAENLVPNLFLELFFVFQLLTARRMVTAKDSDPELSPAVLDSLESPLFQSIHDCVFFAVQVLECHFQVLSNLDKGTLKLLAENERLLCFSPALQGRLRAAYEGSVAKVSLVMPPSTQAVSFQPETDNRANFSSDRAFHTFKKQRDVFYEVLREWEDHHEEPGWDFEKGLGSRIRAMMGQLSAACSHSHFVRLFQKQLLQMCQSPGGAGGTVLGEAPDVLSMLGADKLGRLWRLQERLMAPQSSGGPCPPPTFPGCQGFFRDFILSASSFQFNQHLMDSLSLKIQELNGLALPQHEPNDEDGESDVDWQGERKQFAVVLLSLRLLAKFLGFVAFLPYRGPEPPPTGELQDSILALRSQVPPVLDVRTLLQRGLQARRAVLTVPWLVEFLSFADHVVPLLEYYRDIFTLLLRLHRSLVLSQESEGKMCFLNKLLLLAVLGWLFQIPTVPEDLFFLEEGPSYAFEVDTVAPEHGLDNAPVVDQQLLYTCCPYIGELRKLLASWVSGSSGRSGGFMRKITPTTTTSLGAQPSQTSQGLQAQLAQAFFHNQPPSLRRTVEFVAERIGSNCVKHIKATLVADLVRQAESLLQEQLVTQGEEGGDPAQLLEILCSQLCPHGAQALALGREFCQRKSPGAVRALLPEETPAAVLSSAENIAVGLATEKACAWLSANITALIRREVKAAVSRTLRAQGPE

T4: C-terminal 222 amino acids of Codanin-1 (a.a.1005 to 1227) (human) (UniProt Q8IWY9)
T4 sequence: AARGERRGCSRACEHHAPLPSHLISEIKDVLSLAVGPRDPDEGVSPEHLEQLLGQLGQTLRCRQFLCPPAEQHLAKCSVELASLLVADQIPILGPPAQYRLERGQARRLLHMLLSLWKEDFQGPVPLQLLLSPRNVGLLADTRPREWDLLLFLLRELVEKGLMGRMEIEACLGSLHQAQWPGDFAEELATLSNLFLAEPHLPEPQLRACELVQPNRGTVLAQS

T5: Codanin-1 R1042W mutant protein (human) (UniProt Q8IWY9)
T5 sequence: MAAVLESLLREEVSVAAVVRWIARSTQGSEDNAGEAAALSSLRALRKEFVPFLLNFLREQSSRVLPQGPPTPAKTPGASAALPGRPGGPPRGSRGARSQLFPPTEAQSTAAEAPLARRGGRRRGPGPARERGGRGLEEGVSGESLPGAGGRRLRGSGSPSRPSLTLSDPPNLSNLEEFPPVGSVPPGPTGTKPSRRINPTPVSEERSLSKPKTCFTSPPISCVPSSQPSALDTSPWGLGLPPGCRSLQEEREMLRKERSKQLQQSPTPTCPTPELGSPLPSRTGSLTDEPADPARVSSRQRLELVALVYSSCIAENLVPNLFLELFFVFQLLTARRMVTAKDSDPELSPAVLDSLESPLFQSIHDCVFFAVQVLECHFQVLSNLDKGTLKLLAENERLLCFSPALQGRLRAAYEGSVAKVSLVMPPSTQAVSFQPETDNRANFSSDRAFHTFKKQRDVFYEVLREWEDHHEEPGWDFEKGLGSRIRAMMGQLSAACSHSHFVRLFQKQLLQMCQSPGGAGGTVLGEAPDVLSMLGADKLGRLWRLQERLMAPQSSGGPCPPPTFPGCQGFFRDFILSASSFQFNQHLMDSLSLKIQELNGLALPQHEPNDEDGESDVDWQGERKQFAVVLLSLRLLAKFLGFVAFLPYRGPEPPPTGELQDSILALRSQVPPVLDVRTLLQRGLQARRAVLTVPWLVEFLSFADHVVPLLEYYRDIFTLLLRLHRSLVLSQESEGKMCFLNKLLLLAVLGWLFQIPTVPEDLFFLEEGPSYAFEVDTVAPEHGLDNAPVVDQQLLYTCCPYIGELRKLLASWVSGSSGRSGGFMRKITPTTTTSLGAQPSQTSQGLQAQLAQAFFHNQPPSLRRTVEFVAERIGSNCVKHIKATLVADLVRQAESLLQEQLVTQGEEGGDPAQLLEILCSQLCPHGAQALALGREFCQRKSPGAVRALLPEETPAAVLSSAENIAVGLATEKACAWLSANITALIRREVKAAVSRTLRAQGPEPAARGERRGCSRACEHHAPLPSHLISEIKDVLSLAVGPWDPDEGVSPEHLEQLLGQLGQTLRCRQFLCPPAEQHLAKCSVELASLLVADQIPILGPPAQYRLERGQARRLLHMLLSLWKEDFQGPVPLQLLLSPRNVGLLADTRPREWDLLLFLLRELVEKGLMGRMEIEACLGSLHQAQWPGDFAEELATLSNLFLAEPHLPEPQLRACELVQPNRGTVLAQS


Tests used:
[1] = target: T1, Flag-tagged Codanin-1 (human); experiment: co-IP; HeLa cells co-transfected, lysate (1% TX-100, 100 mM NaCl) precipitated with Flag antibody on protein A-sepharose, 4 °C, Western blot
HA-C15Orf41 (human) = target: T2, HA-C15Orf41 (human); experiment: co-IP; reciprocal: HeLa cells co-transfected, lysate precipitated with anti-rabbit HA antibodies on protein A-sepharose, 4 °C, Western blot
[2] = target: T3, Codanin-1 protein lacking the last 224 amino acids (human); experiment: co-IP; HeLa cells co-transfected, lysate (1% TX-100, 100 mM NaCl) precipitated with Flag antibody on protein A-sepharose, 4 °C, Western blot
[3] = target: T4, C-terminal 222 amino acids of Codanin-1 (a.a.1005 to 1227) (human); experiment: as above
[4] = target: T5, Codanin-1 R1042W mutant protein (human); experiment: as above

Row | binding [1] | binding (HA-C15Orf41 (human)) | binding [2] | binding [3] | binding [4] | Molecule
1 | no binding |  |  |  |  | HA-Nek7 (from UniProt Q8TDX7 1-302) (enzyme)
2 |  | binds |  |  |  | Flag-tagged Codanin-1 (protein, UniProt Q8IWY9-2 1-1227) MAAVLESLLREEVSVAAVVRWIARSTQGSEDNAGEAAALSSLRALRKEFVPFLLNFLREQSSRVLPQGPPTPAKTPGASAALPGRPGGPPRGSRGARSQLFPPTEAQSTAAEAPLARRGGRRRGPGPARERGGRGLEEGVSGESLPGAGGRRLRGSGSPSRPSLTLSDPPNLSNLEEFPPVGSVPPGPTGTKPSRRINPTPVSEERSLSKPKTCFTSPPISCVPSSQPSALDTSPWGLGLPPGCRSLQEEREMLRKERSKQLQQSPTPTCPTPELGSPLPSRTGSLTDEPADPARVSSRQRLELVALVYSSCIAENLVPNLFLELFFVFQLLTARRMVTAKDSDPELSPAVLDSLESPLFQSIHDCVFFAVQVLECHFQVLSNLDKGTLKLLAENERLLCFSPALQGRLRAAYEGSVAKVSLVMPPSTQAVSFQPETDNRANFSSDRAFHTFKKQRDVFYEVLREWEDHHEEPGWDFEKGLGSRIRAMMGQLSAACSHSHFVRLFQKQLLQMCQSPGGAGGTVLGEAPDVLSMLGADKLGRLWRLQERLMAPQSSGGPCPPPTFPGCQGFFRDFILSASSFQFNQHLMDSLSLKIQELNGLALPQHEPNDEDGESDVDWQGERKQFAVVLLSLRLLAKFLGFVAFLPYRGPEPPPTGELQDSILALRSQVPPVLDVRTLLQRGLQARRAVLTVPWLVEFLSFADHVVPLLEYYRDIFTLLLRLHRSLVLSQESEGKMCFLNKLLLLAVLGWLFQIPTVPEDLFFLEEGPSYAFEVDTVAPEHGLDNAPVVDQQLLYTCCPYIGELRKLLASWVSGSSGRSGGFMRKITPTTTTSLGAQPSQTSQGLQAQLAQAFFHNQPPSLRRTVEFVAERIGSNCVKHIKATLVADLVRQAESLLQEQLVTQGEEGGDPAQLLEILCSQLCPHGAQALALGREFCQRKSPGAVRALLPEETPAAVLSSAENIAVGLATEKACAWLSANITALIRREVKAAVSRTLRAQGPEPAARGERRGCSRACEHHAPLPSHLISEIKDVLSLAVGPRDPDEGVSPEHLEQLLGQLGQTLRCRQFLCPPAEQHLAKCSVELASLLVADQIPILGPPAQYRLERGQARRLLHMLLSLWKEDFQGPVPLQLLLSPRNVGLLADTRPREWDLLLFLLRELVEKGLMGRMEIEACLGSLHQAQWPGDFAEELATLSNLFLAEPHLPEPQLRACELVQPNRGTVLAQS
3 | binds |  | no binding | binds | binds | HA-C15Orf41 (protein, UniProt Q9Y2V0-1 1-281) MILTKAQYDEIAQCLVSVPPTRQSLRKLKQRFPSQSQATLLSIFSQEYQKHIKRTHAKHHTSEAIESYYQRYLNGVVKNGAAPVLLDLANEVDYAPSLMARLILERFLQEHEETPPSKSIINSMLRDPSQIPDGVLANQVYQCIVNDCCYGPLVDCIKHAIGHEHEVLLRDLLLEKNLSFLDEDQLRAKGYDKTPDFILQVPVAVEGHIIHWIESKASFGDECSHHAYLHDQFWSYWNRFGPGLVIYWYGFIQELDCNRERGILLKACFPTNIVTLCHSIA
